From patent US20130115213A1 (AFFIMED THERAPEUTICS, published 2013) come the findings set out here.

For assay [1], the target named is T1, human CD3 (TCR/CD3 complex) on the cell surface (human, UniProt P07766).
T1 construct: whole, on cells; On cells CD3 stands as the whole TCR/CD3 complex; also called CD3+ Jurkat cells
Nature of the assay: flow cytometry on CD3+ Jurkat cells; reference scFv10. As to the method: The human CD3⁺ T-cell leukemia cell line Jurkat was used for flow cytometry experiments. The cells were cultured in RPMI 1640 medium supplemented with 10% heat-inactivated fetal calf serum (FCS), 2 mM L-glutamine, 100 U/mL penicillin G sodium and 100 μg/ml streptomycin sulfate (all from Invitrogen, Groningen, The Netherlands) at 37° C. in a humidified atmosphere with 5% CO₂. 1×10⁶ cells were incubated with 0.1 ml phosphate buffered saline (PBS, Invitrogen, Groningen, The Netherlands) supplemented with 2% heat-inactivated fetal calf serum (FCS, Invitrogen, Groningen, The Netherlands) and 0.1% sodium azide (Roth, Karlsruhe, Germany) (referred to as FACS buffer) containing diluted scFv-antibodies or mAb OKT3 (Orthoclone OKT3, Cilag, Sulzbach, Germany) for 45 min on ice. After washing with FACS buffer, the cells were incubated with 0.1 ml of 0.01 mg/ml anti-(His)₆ mouse mAb 13/45/31-2 (Dianova, Hamburg, Germany) in the same buffer for 45 min on ice. […] The fluorescence of 1×10⁴ stained cells was measured using a Beckman-Coulter Epics XL flow cytometer (Beckman-Coulter, Krefeld, Germany). Mean fluorescence (F) was calculated using System-II and Expo32 software (Beckman-Coulter, Krefeld, Germany) and the background fluorescence was subtracted. […]
For orientation: Flow cytometry measures light scatter and fluorescence of single cells or particles in a stream.

In assay [2] the target is T1, human CD3 (TCR/CD3 complex) on the cell …. Nature of the assay: flow cytometry on CD3+ Jurkat cells, Lineweaver-Burk fit. As to the method: The human CD3⁺ T-cell leukemia cell line Jurkat was used for flow cytometry experiments. The cells were cultured in RPMI 1640 medium supplemented with 10% heat-inactivated fetal calf serum (FCS), 2 mM L-glutamine, 100 U/mL penicillin G sodium and 100 μg/ml streptomycin sulfate (all from Invitrogen, Groningen, The Netherlands) at 37° C. in a humidified atmosphere with 5% CO₂. 1×10⁶ cells were incubated with 0.1 ml phosphate buffered saline (PBS, Invitrogen, Groningen, The Netherlands) supplemented with 2% heat-inactivated fetal calf serum (FCS, Invitrogen, Groningen, The Netherlands) and 0.1% sodium azide (Roth, Karlsruhe, Germany) (referred to as FACS buffer) containing diluted scFv-antibodies or mAb OKT3 (Orthoclone OKT3, Cilag, Sulzbach, Germany) for 45 min on ice. After washing with FACS buffer, the cells were incubated with 0.1 ml of 0.01 mg/ml anti-(His)₆ mouse mAb 13/45/31-2 (Dianova, Hamburg, Germany) in the same buffer for 45 min on ice. […] The fluorescence of 1×10⁴ stained cells was measured using a Beckman-Coulter Epics XL flow cytometer (Beckman-Coulter, Krefeld, Germany). Mean fluorescence (F) was calculated using System-II and Expo32 software (Beckman-Coulter, Krefeld, Germany) and the background fluorescence was subtracted.

For assay [3] the target is unchanged. Nature of the assay: cell surface retention on CD3+ Jurkat cells at 37 C; ln2/koff. As to the method: (§1) To investigate the biological relevance of the differences between scFv₆, scFv₁₀ and OKT3 in direct binding experiments, the in vitro retention of the scFv-antibodies on the surface of CD3⁺ Jurkat cells was determined by flow cytometry (FIG. 7). Cell surface retention assays were performed at 37° C. under conditions preventing internalization of cell surface antigens, as described (Adams et al., 1998, Cancer Res. 58, 485-490), except that the detection of retained scFv-antibodies was performed using mouse anti-(His)₆ mAb 13/45/31-2 (0.01 mg/ml; Dianova, Hamburg, Germany) followed by FITC-conjugated goat anti-mouse IgG (0.015 mg/ml; Dianova, Hamburg, Germany). Kinetic dissociation constant (koff) and half-life (t_{1/2}) values for dissociation of antibodies were deduced from a one-phase exponential decay fit of experimental data using the software program PRISM (GraphPad Software, San Diego, Calif.).

The target is the same in assay [4]. The assay is described as follows: cell surface retention on CD3+ Jurkat cells at 37 C; reference scFv10. As to the method: as §1
Assay [5] has the same target. Nature of the assay: cell surface retention on CD3+ Jurkat cells at 37 C, flow cytometry, one-phase exponential decay fit. As for the experimental part:
as §1

T1 sequence (P07766 23-207, one chain of several): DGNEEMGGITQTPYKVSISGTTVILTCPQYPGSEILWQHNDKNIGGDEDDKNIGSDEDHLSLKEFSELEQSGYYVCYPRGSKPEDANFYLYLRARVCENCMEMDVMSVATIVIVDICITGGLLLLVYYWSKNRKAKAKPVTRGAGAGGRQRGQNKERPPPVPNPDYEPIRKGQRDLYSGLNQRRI

B1: anti-CD3 scFv6 (scFv)
scFv: QVQLQQSGAELARRGASVKMS[letters of about 80 residues omitted]WGQGTTLTVSSAKTTPDIVLTQSPAIMSASPGEKVTMTCSASSSVSYMNWYQQKSGTSPKRWIYDTSKLASGVPAHFRGSGSGTSYSLTISGMEAEDAATYYCQQWSSNPFTFGSGTKLEINRADTAAAGSHHHHHH
notes: VH-SAKTTP-VL with six C-terminal histidine residues, made in the E. coli periplasm with a PelB leader; also called bivalent scFv6; diabody
For the molecule B1, in assay [1], the “fold difference in affinity against scFv10” value was 10 fold. Moreover, the Kd in assay [2] came to 4.58 nM. Further, the t1/2 in assay [3] worked out at 1.48 min. Moreover, the “fold longer t1/2 against scFv10” value in assay [4] was found to be 1.5 fold. Also, the koff in assay [5] stood at 0.00782 s⁻¹.

The term Kd denotes the constant that tells how readily two partners part at equilibrium. Low values mean tighter binding, high ones weaker binding. In general, koff refers to the first-order rate constant of dissociation.
